Measured values: patent US20220175942A1 (OXFORD UNIVERSITY INNOVATION, published 2022)

Target: T1, P1156_IXORI (Ixodes ricinus, UniProt V5HBW0 29-108)
T1 construct: Tick evasin; also called Evasin
T1 sequence: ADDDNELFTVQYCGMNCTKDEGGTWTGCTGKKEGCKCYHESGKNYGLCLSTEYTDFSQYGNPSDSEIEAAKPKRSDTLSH
Assay: yeast surface display library FACS screen, labelled chemokine (col C: isolated in)

B1: CXCL8_HUMAN (ligand)
chain: not shown
notes: Biotinylated (detected with streptavidin-Alexa647) in yeast display; AlexaFluor 647 labelled (Almac) in thermophoresis
binding result: binds
